From PMC4336329 (PLoS ONE, 2015)
Among all 310,000 compounds or so, about 14,000 (4.5%) showed an effect of 50% or more. The effect is printed as a negative number. This is one part of the list.

molecular target: human ether-à-go-go-related gene (hERG) potassium channel (human, UniProt Q12809); assay: primary screen, population patch clamp on CHO cells stably expressing hERG
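Also: peak tail current of the secondary pulse compared with the same well before compound.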

Sequence of human ether-à-go-go-related gene (hERG) potassium channel (Q12809 whole entry, looked up): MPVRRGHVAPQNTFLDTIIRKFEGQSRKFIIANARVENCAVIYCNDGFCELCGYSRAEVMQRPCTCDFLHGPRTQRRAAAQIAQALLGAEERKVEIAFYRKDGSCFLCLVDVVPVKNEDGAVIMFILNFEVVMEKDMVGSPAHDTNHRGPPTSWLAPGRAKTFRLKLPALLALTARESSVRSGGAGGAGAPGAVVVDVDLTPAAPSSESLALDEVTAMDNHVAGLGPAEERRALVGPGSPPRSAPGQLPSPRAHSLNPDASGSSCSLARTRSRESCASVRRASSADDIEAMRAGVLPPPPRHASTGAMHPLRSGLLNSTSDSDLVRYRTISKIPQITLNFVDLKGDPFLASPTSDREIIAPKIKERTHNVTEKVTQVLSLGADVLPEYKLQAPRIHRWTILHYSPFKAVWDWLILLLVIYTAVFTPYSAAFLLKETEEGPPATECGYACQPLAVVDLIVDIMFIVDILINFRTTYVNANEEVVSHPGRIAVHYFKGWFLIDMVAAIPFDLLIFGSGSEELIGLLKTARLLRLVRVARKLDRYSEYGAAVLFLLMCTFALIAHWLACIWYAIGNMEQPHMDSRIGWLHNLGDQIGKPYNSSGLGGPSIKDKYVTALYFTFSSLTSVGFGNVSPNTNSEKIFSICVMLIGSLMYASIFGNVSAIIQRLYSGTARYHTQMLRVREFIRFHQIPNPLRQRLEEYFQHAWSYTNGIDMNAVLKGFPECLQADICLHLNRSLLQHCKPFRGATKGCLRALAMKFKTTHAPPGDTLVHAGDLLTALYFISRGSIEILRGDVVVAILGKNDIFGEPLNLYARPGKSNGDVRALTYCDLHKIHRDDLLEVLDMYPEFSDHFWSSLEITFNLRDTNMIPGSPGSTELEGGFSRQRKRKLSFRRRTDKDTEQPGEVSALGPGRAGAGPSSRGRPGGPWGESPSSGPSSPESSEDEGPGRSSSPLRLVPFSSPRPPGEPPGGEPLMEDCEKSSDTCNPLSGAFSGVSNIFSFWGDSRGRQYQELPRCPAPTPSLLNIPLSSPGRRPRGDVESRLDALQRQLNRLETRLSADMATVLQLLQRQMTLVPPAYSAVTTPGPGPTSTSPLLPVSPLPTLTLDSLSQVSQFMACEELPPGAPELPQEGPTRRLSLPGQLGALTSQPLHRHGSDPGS

Row | Structure (SMILES) | hERG current change (%, negative = inhibition) at 10uM
1 | O=C(Nc1cc(C(F)(F)F)ccc1N1CCCCC1)c1ccco1 | 21.2%
2 | Cc1ccc(C2=NN(C(=O)CCCC(=O)O)C(c3ccco3)C2)cc1 (centres unmarked) | 21.4%
3 | COc1cccc(CN2CC(C(=O)N(C)CCCC3CCCC3)CCC2=O)c1 (centres unmarked) | -21%
4 | COc1cc(S(=O)(=O)N2CCCCCC2)ccc1Cl | -37.2%
5 | Cc1nc([N+](=O)[O-])cn1CC(=O)c1ccc(Cl)cc1 | 11.9%
6 | Cc1[nH]nc2c1C(c1ccc(N(C)C)cc1)C1=C(CC(C)(C)CC1=O)N2 (centres unmarked) | 28.2%
7 | O=C(Oc1cc2oc(=O)cc(-c3ccccc3)c2cc1Cl)C1CCCCC1 | 4.05%
8 | CN1CCN(c2ccc(S(=O)(=O)N3CCOCC3)cc2NC(=O)CCc2ccccc2)CC1 | -8.75%
9 | COc1cc(C(C)=O)ccc1OCC(O)CN1CCN(c2ccccn2)CC1 (centres unmarked) | -9.62%
10 | Cc1cc(C)c2nc(NNC(=O)c3ccc(S(=O)(=O)N4CCCCC4)cc3)sc2c1 | 4.21%
11 | CCN1CCN(C(=O)c2ccc(OCC(=O)Nc3ccc(F)cc3)c(OC)c2)CC1 | -14.9%
12 | CC(=O)N(C)N1c2ccccc2CCc2ccccc21 | 10.9%
13 | COc1ccccc1NC(=O)C1CCN(S(C)(=O)=O)CC1 | 18.8%
14 | NC(=O)CN1CCN(C2CC(=O)N(CCc3ccccc3)C2=O)CC1 (centres unmarked) | 4.38%
15 | Cc1cccc(N2CCCC2=Nc2ccc(Br)cc2C#N)c1 | 14.4%
16 | Cn1cccc1C(=O)C(=O)Nc1ccc(Cl)cc1 | 4.11%
17 | Cl.Fc1cccc(CN(C2=NCCN2)c2c(Cl)cccc2Cl)c1 | -10%
18 | Cc1cc(N(C)C)cc(C)[n+]1[O-] | 13.8%
19 | COc1ccc(CNC(=O)[C@H](C)NC(=O)C2CCN(C(=O)[C@@H](N)CCSC)CC2)cc1 | 5.47%
20 | CCOC(=O)C1CCCN(C(=O)c2ccc3nc(-c4ccccc4)c(-c4ccccc4)nc3c2)C1 (centres unmarked) | 1.06%
21 | O=C(NCCOc1ccccc1)c1cccc(S(=O)(=O)NCc2ccccc2)c1 | -16.8%
22 | CCc1ccc(NC(=O)CO/N=C(\C)c2cc3ccccc3o2)cc1 | -11%
23 | CC(=O)Nc1cccc2c1C(=O)N(c1cccc(C)c1)C2=O | 5.57%

Row | Structure (SMILES) | hERG current change (%, negative = inhibition) at 10uM
24 | N#CCCN(C(=O)COC(=O)c1ccc(S(=O)(=O)N2CCCC2)cc1)c1cccc(Cl)c1 | 10.7%
25 | CCC(C)N(C(=O)Cn1nnc(-c2ccc(Cl)cc2)n1)C1CCS(=O)(=O)C1 (centres unmarked) | -12.5%
26 | Cc1nnc(-n2ncc(C#N)c2N)c2nn(-c3cccc(Cl)c3)c(C)c12 | -33.5%
27 | CCN(CC(=O)Nc1ccc(OC)cc1)CC(=O)Nc1ccc(Cl)cc1F | -6.34%
28 | CC1=Nc2cc(C(=O)NCCCOC(C)C)ccc2Sc2ccccc21 | -19.3%
29 | CCCN=Cc1sc2ccc(OCC)cc2c1O | -4.28%
30 | CCCCCn1nc(C)c2c(C)cc(=O)[nH]c21 | 16.3%
31 | COc1ccc(N(C(C)=O)c2nc3ccccc3[nH]2)cc1 | 0.757%
32 | CCOCCCNC(=O)CN1N=C(c2ccc(C)cc2)CCC1=O | -73.9%
33 | Cc1[nH]c(=O)c(C#N)c(C)c1Br | 7.33%
34 | CCN(CC)c1ccc(NC(=O)c2cccnc2)c(C)c1 | 26.9%
35 | O=C(c1ccc(Cl)cc1)c1ccc(OCC(=O)N2CCOCC2)cc1 | -40.8%
36 | CC1CC(C)CN(C(=O)CSC2=Nc3ccccc3C3=NC(Cc4c[nH]c5ccccc45)C(=O)N23)C1 (centres unmarked) | -18.3%
37 | CCOC(=O)Cn1c(=O)c(-c2ccccc2NC)nc2ccccc21 | 1.02%
38 | COc1cc(=O)[nH]c(SC(C)C(=O)Nc2cccc3ccccc23)n1 (centres unmarked) | 3.85%
39 | CCN(CC(=O)NC(C)C)C(=O)Cc1ccc(C)c(C)c1 | 7.89%
40 | CC(C)c1ccc(OCCCCN2CCCCC2)cc1.O=C(O)C(=O)O | -58.8%
41 | CC1CC(CCC(=O)NC(=S)Nc2ccc(Cl)cn2)C(=O)O1 (centres unmarked) | -24.2%
42 | O=C1C(=O)N(CCN2CCOCC2)C(c2ccccc2)/C1=C(\O)c1ccc2c(c1)OCCO2 (centres unmarked) | -15.5%
43 | Cc1cc(C)nc(SCc2ccc(C(=O)NN=C3CCCC3)cc2)n1 | 15.8%
44 | Cc1cccc(-c2nc(Nc3cccc(O)c3)c3ccccc3n2)c1 | 21.8%
45 | O=C(COC(=O)C12CC3CC(CC(C3)C1)C2)Nc1ccc([N+](=O)[O-])cc1Cl | 14.9%
46 | COC(=O)c1ccc(NC(=O)CN2CCN(S(=O)(=O)c3ccc(Br)cc3)CC2)cc1 | -31.4%

Row | Structure (SMILES) | hERG current change (%, negative = inhibition) at 10uM
47 | CCN(CC(=O)Nc1ccc(OC)cc1)C(=O)C1CCN(C(=O)c2ccc(Cl)cc2)CC1 | -39.2%
48 | Cc1nc(SCC(=O)Nc2ccc3c(c2)OCO3)c(C#N)c2c1CCCC2 | 9.45%
49 | CN(C)CCCNc1oc(-c2ccccc2Cl)nc1S(=O)(=O)c1ccccc1 | -43.3%
50 | O=C(NC1=NCCS1)c1ccc(Cl)c(Cl)c1 | 0.298%
51 | CCOC(=O)C1CCCN(C(=O)c2cn(C)c3ccc(S(=O)(=O)N(C)C)cc3c2=O)C1 (centres unmarked) | -3.32%
52 | O=Cc1ccc(OCc2cn3ccccc3n2)cc1 | -0.106%
53 | CCOc1ccc(S(=O)(=O)NC(=O)c2ccccc2)cc1 | 14.1%
54 | N#C/C(=C\c1ccc(OCCN2CCOCC2)cc1)C(=O)Nc1ccccc1F | -27.8%
55 | O=C(CSc1ccc2nnc(-c3cccnc3)n2n1)NCC1CCCO1 (centres unmarked) | -9.66%
56 | CC(C)OC(=O)CSc1nnc2c(n1)[nH]c1ccc(F)cc12 | 8.22%
57 | CC(C)c1ccc(OCc2ccc(C(=O)NN3CCN(C)CC3)o2)cc1 | -31.7%
58 | O=C(NCc1cccnc1)c1ccc(S(=O)(=O)Nc2ccccc2)cc1 | -47.1%
59 | CN(Cc1cn(C)nc1-c1ccccc1F)C1CCOC1 (centres unmarked) | 21.4%
60 | N/C(=N/O)C(c1ccccc1)c1ccccc1 | 9.81%
61 | CCC(=O)Nc1ccc2nc(C3CC3)n(Cc3ccccc3)c(=O)c2c1 | 2.83%
62 | Cc1ccc(/C=C/C(=O)O)cc1S(=O)(=O)NCCCO | 5.74%
63 | COc1ccccc1C(CC(=O)Nc1nccs1)c1ccco1 (centres unmarked) | 2.68%
64 | O=C(Nc1ccc(F)cc1)c1ccccc1NC(=O)C1CC=CCC1C(=O)O (centres unmarked) | 15.7%
65 | O=C(O)c1cc(O)ccc1NC(=O)c1cccc2ccccc12 | 9.38%
66 | N#C/C(=C\c1ccc(F)cc1)C(=O)Nc1ccccn1 | 2.68%
67 | CCCCCCCCOc1ccc(C2OC34CCCCC3C(C#N)(C#N)C2(C#N)C(=N)O4)cc1 (centres unmarked) | 6.39%
68 | CCN(C(=O)CN1C(=O)NC(c2ccccc2)(c2ccc(C)c(C)c2)C1=O)C1CCCCC1 (centres unmarked) | -33.3%
69 | COc1ccc(OCCSc2nnc(-c3ccccc3)n2N)cc1 | -5.1%

Row | Structure (SMILES) | hERG current change (%, negative = inhibition) at 10uM
70 | CC(=O)c1cccc(NC(=O)CCS(=O)(=O)c2ccc(Br)s2)c1 | 14.7%
71 | O=C(OCc1nc2ccsc2c(=O)[nH]1)c1cc(Br)c(Br)s1 | -9.02%
72 | COc1ccc(C(=O)NCCSc2ccccc2C)cc1 | -14.4%
73 | Cc1nc2c(C)cccn2c(=O)c1NC(=O)c1cccs1 | 5.79%
74 | CCc1ccc(Nc2cnn(C34CC5CC(CC(CC(=O)O)(C5)C3)C4)c(=O)c2Cl)cc1 | 13.1%
75 | N#C/C(=C\N1CCOCC1)S(=O)(=O)c1ccc(Cl)cc1 | 2.5%
76 | O=C(NCc1ccc(F)cc1)c1ccc(S(=O)(=O)Nc2cccc(C(F)(F)F)c2)cc1 | 16.4%
77 | Cc1c(C(=O)N2CCN(S(=O)(=O)c3ccccc3F)CC2)oc2c(Cl)cccc12 | -9.35%
78 | CCc1c(C#N)c(=O)[nH]c(=O)n1-c1ccccc1 | 2.27%
79 | CCCCOc1ccc(NC(=O)CN2CCN(CC)CC2)cc1.Cl | -15.9%
80 | CCn1c(CC(=O)Nc2ccccc2F)nnc1SCC(=O)Nc1nnc(C)s1 | -22.2%
81 | CCN=C1S/C(=C\c2ccc(O)c(OCC)c2)C(=O)N1CC | -2.56%
82 | CC(C)C1CC(CCN2CCCCC2)(c2ccccc2)CCO1.Cl (centres unmarked) | -24.3%
83 | O=C(Nc1ccccc1)C(Cc1ccccc1)NC(=O)C12CC3CC(CC(C3)C1)C2 (centres unmarked) | -3.81%
84 | CC12CN3CC(C)(CN(C1)C3c1ccc([N+](=O)[O-])o1)C2=O (centres unmarked) | 8.24%
85 | CNc1nc(C)cc(C)c1S(=O)(=O)c1ccc(Cl)cc1 | -4.93%
86 | CCN(c1ccccc1C)S(=O)(=O)c1cc2c3c(c1)CCN3C(=O)CC2 | -14.4%
87 | COc1cc(/C=N/NC(=O)c2ccc(COc3ccccc3Cl)o2)cc(Br)c1O | -15.1%
88 | CNc1nc(Nc2ccc(C(C)=O)cc2)nc(OC(C(F)(F)F)C(F)(F)F)n1 | 13.9%
89 | CCN(CC)CCNC(=O)c1cc2c(=O)n(CC)c3ccccc3c2s1 | -13.4%
